Measurements published in PubChem BioAssay AID1508642 (National Center for Advancing Translational Sciences (NCATS), 2021).
The whole screen tested about 43,000 compounds, of which about 200 (0.47%) were called active. About 12% were inconclusive and are not listed. Calls follow the shape of the dose curve; as a rule, active = well fitted cell-killing curve with a large enough effect; inconclusive = small, poorly fitted or top-dose-only effect, or effect the other way; inactive = flat fitted curve, though single readings scatter. The list shows a part of the results.

Experiment: Cell viability qHTS assay in S16 Pmp22-F2sN cells; also: nearly all actives have a fitted effect of over 65% in size
Settings: S16 Pmp22-F2sN Schwann cells (luciferase reporters placed in the Pmp22 gene) viability, CellTiter-Glo, 24 h; series mostly up to 57.5 µM; activity change, negative = cytotoxicity: at the top concentration
Summary of the method: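 Luminescence from CellTiter-Glo, read by CCD camera after a 15 min room-temperature incubation, served as the viability signal. Reporter Schwann cells (S16 Pmp22-F2sN) had been treated with pin-transferred compounds for 24 h at 37C.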
% is scaled to controls: 0 for no effect and ±100 for the full control effect.

SMILES	activity change, negative = cytotoxicity
CCCOC(=O)c1ccc(Cn2nnc3sc4c(c3c2=O)CCC(C)C4)cc1 (stereo not drawn)	inactive: 9.35%
CCOc1ccc(NC(=O)c2cc(S(=O)(=O)N3CCOCC3)ccc2F)cc1	inactive: -0.866%
COc1ccccc1CNC(=O)c1cnc(N2CCCC2)nc1C	inactive: 3.96%
COc1ccc(-c2cn3nc(SCC(=O)Nc4ccc(C)c(Cl)c4)ccc3n2)cc1	inactive: 6.5%
Cc1ccc(NC(c2ccc(Cl)cc2)c2nnc(-c3cccc(F)c3)o2)cc1C (stereo not drawn)	inactive: 0.845%
COC(=O)c1ccc(NC(=O)CN2C(=O)c3cccc4cccc2c34)cc1	inactive: 5.31%
O=C(CSc1nc2c([nH]c3ccccc32)c(=O)n1-c1ccc(Cl)cc1)N1CCCC1	inactive: 12.2%
Cc1cc(C)c(NC(=O)COc2ccc3c(C)cc(=O)oc3c2)c(C)c1	inactive: -8.52%
O=S(=O)(NCC(Nc1ccc(Cl)cc1)c1ccccc1)c1ccccc1 (stereo not drawn)	inactive: -26.2%
CCN(CCCNC(=O)c1cc(Nc2ccccc2OC)nc2ccccc12)c1cccc(C)c1	inactive: 12%
COc1ccc(-c2noc(C3CC(=O)N(c4ccccc4)C3)n2)c(OC)c1 (stereo not drawn)	inactive: -0.0677%
Cc1cc(C)cc(NC(=O)c2cccc3c2C(=O)N(C2CCCCC2)C3)c1	inactive: 17.3%
O=C(COc1ccccc1[N+](=O)[O-])Nc1ccc(-c2nc3ccccc3s2)cc1	inactive: 2.72%
CCc1nn(CC(=O)NCc2ccccc2Cl)c(=O)c2cccn12	inactive: 2.32%
COc1ccc(CCNC(=O)c2ccc3c(c2)N(Cc2ccc(F)cc2)CCS3)cc1OC	inactive: -29.6%
Cc1nc(-c2ccc(S(=O)(=O)Nc3ccc(C)c(N(C)C)c3)cc2)co1	inactive: -14.7%
Cc1nc(SCC(=O)Nc2ccccc2F)[nH]c(=O)c1Cc1ccccc1	inactive: 8.1%
O=S(=O)(c1ccccc1)c1nc(-c2cccs2)oc1SCc1ccc(F)cc1	inactive: 0.555%
COc1ccc(S(=O)(=O)c2cc(NS(=O)(=O)c3ccc(Cl)cc3)c(C)c(C)c2O)cc1	inactive: 6.61%
Fc1cccc(-n2ncc3c2ncn2nc(-c4ccccc4Cl)nc32)c1	inactive: -13.2%
O=C(Cn1c(=O)c2cccn2c2ccc(F)cc21)N1CCN(c2ccc(F)cc2)CC1	inactive: 2.48%
Cc1cccc(N2CCN(C(=O)CCn3c(=O)c4cccn4c4cccnc43)CC2)c1C	inactive: 8.22%
O=C(COc1ccccc1)Nc1cccc(-c2cn3cccnc3n2)c1	inactive: -0.975%
CCOc1ccc(N(C)C(CNS(=O)(=O)c2ccccc2)c2ccccc2)cc1 (stereo not drawn)	inactive: 1.87%
Cc1c(C(=O)Nc2ccc(F)cc2)sc2nc[nH]c(=O)c12	inactive: 4.18%
CC(C)CCn1c(=O)c2sccc2n2c(CCCC(=O)NCc3ccc(F)cc3)nnc12	inactive: 21%
COc1ccccc1N1CCN(C(=O)c2cc(-c3ccccc3O)on2)CC1	inactive: 13.3%
N#Cc1cccc(NC(=O)c2cc3c(s2)-c2ccc(Cl)cc2SC3)c1	inactive: -1.65%
